# The supplement of paper PMC7826260
# This is one part of the list. The data describe in vitro nicking of single-stranded DNA by Rep domains for 1 h at 37 °C with 3 µM enzyme; only the middle of the 90-letter strands is printed. Uncut reads are compared with the no-enzyme pool on a log2 scale; the lower, the more was cut; hits are not called. Counts are relative to all reads; values above 0 arise when much of the pool is cut.
# System: T1, Rep nickase domain of banana bunchy top virus
# T1 sequence (residues 1-94, tag not shown): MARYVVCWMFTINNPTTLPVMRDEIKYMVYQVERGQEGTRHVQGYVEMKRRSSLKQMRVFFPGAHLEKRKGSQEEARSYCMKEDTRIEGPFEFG
# Assay: uncleaved DNA left, log2 of reads against the no-enzyme library (log2 ratio); higher = less cleavage (more negative = more Rep cleavage of the k-mer); sequences stand for … in CTCGTCCG…ACCGGAGA
# Method: (§1)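 A pool of 90-nt single-stranded DNAs with seven random bases just before the constant AC of the nick site (name = the seven bases) was cut by 3 µM recombinant His6-SUMO-tagged Rep nickase domain (300 nM DNA, 50 mM HEPES pH 8.0, 50 mM NaCl, 1 mM MnCl2, 1 h, 37 °C, three replicates). Uncut DNA was amplified and sequenced.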
row,Sequence,uncleaved DNA left (log2)
1,TTCGGAT,-0.136
2,CGGCCGG,0.0923
3,GTGGGTG,-0.0207
4,GCTGGAC,0.151
5,TTGAAAT,0.122
6,AGTTCAC,-0.117
7,TGGCGAT,0.102
8,TGAACTG,0.0844
9,TCACTGG,-0.0744
10,AGTTGGG,-0.0238
11,ATCCAGA,-0.06
12,CACACGC,-0.0297
13,CAGCTTA,0.0604
14,ACTGGCT,0.147
15,ACCGGCC,-0.113
16,GAGCGCG,-0.0249
17,GTCTGGA,0.0971
18,CGTCAAA,0.118
19,ATCATGC,-0.0271
20,GGCATCG,0.0557

# System: T2, Rep nickase domain of cabbage leaf curl virus
# T2 sequence (residues 1-116, tag not shown): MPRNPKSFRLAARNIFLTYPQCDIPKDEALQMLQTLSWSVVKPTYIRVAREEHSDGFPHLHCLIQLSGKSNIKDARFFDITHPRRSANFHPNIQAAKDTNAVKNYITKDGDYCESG
# Assay: as above
# Method: as §1
row,Sequence,uncleaved DNA left (log2)
1,TAGATTA,-0.34
2,GGTAGGA,0.621
3,TACGACT,-0.198
4,CTACTCG,-0.957
5,AAGGAGG,0.08
6,AGAGGCT,0.106
7,TTTGCGA,-0.548
8,ATGGCGC,-0.835
9,ATGCGGG,-0.26
10,CGGAGGT,0.263
11,GCGCCCT,0.0429
12,TCTGGTC,0.269
13,ACGCCGC,-0.384
14,TAGTGTG,-0.638
15,GGGCCCT,0.801
16,TGTAGCA,-0.0213
17,GTTAGGA,0.38
18,TTACCCG,-1.2
19,GTAGTCA,0.324
20,GCCATCC,0.0801

row,Sequence,uncleaved DNA left (log2)
1,TTCGGAT,0.183
2,CGGCCGG,0.417
3,GTGGGTG,-0.0366
4,GCTGGAC,0.725
5,TTGAAAT,0.111
6,AGTTCAC,0.0282
7,TGGCGAT,0.057
8,TGAACTG,-0.00353
9,TCACTGG,0.0277
10,AGTTGGG,-0.743
11,ATCCAGA,-0.0603
12,CACACGC,-0.232
13,CAGCTTA,0.0461
14,ACTGGCT,-0.17
15,ACCGGCC,-0.124
16,GAGCGCG,-0.418
17,GTCTGGA,0.339
18,CGTCAAA,0.231
19,ATCATGC,-0.549
20,GGCATCG,-0.307
